Assay results published in PubChem BioAssay (Tox21).
Values joined by “and” are separate entries in the source; they are usually repeats but may differ in a detail not shown here. Identical values can stand only once. Active and inactive are the calls of the source. Unless noted, the call rests on the fitted dose curve; in most records, active means well fitted curve in the direction sought with a large enough effect in the repeat runs; inconclusive means weak or mixed curves; inactive means no such curve, though single readings can be large; an effect the other way counts as inactive or inconclusive.

What was measured:
[1] = qHTS assay for identifying genotoxic compounds that show differential cytotoxicity against isogenic chicken DT40 cell lines with known DNA damage response pathways - Rad54/Ku70 mutant cell line (AID 743015); conditions: DT40 Rad54/Ku70 mutant viability, CellTiter-Glo, 40 h; activity change, negative = cytotoxicity: at 66.8 µM (top of the series); further: nearly all actives have a fitted effect of over 60% in size; further: potency means the concentration at half of the fitted maximal effect; on activity change, negative = cytotoxicity: on the % scale 0 is the no-effect control and ±100 the full control effect
[2] = qHTS assay to identify small molecule antagonists of the estrogen receptor alpha (ER-alpha) signaling pathway - cell viability counter screen (AID 743074; calls by dose curve;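 further: HEK293 cells carrying ER-alpha-UAS-bla reporter stimulated with 17beta-estradiol; nearly all actives have a fitted effect of over 45% in size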; further: potency means the concentration at half of the fitted maximal effect)
[3] = biological target: Estrogen receptor (Homo sapiens) (UniProt P03372); assay: qHTS assay to identify small molecule agonists of the estrogen receptor alpha (ER-alpha) signaling pathway using the BG1 cell line (AID 743079); conditions: BG1Luc4E2 cells, ERE-luciferase agonist, 22 h; activation: at 70.3 µM (top of the series) unless noted; further: nearly all actives have a fitted effect of over 20% in size; further: potency means the concentration at half of the fitted maximal effect; on activation: on the % scale 0 is the no-effect control and ±100 the full control effect
[4] = qHTS assay to identify small molecule antagonists of the androgen receptor (AR) signaling pathway - cell viability counter screen (AID 743033; further: nearly all actives have a fitted effect of over 45% in size; further: potency means the concentration at half of the fitted maximal effect); conditions: AR-bla HEK293 viability, CellTiter-Glo luminescence, 16 h; activity change, negative = cytotoxicity: at 58.5 µM (top of the series)
[5] = biological target: Androgen receptor (Homo sapiens) (UniProt P10275); assay: qHTS assay to identify small molecule antagonists of the androgen receptor (AR) signaling pathway (AID 743035; active means well fitted inhibition curve with a large enough effect in the signal ratio in the repeat runs, not every such curve was filed as active; inconclusive means weak or mixed curves, or effect the other way; inactive means no such curve, though single readings can be large or run the other way; the % refers to the signal ratio; further: potency means the concentration at half of the fitted maximal effect); conditions: HEK293 AR-UAS-bla, R1881-stimulated, beta-lactamase FRET, 16 h; activity change, negative = inhibition: at 58.5 µM (top of the series) unless noted
Outline: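 Fluorescence from a beta-lactamase FRET substrate (LiveBLAzer B/G, 2 h, room temperature) measured inhibition of R1881-stimulated signaling in GeneBLAzer AR-UAS-bla HEK293 cells exposed to compound for 16 h at 37C.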

[6] = biological target: Androgen receptor (Homo sapiens) (UniProt P10275); assay: qHTS assay to identify small molecule agonists of the androgen receptor (AR) signaling pathway (AID 743036; active means well fitted activation curve with a large enough effect in the signal ratio in the repeat runs, with a control signal flat, not every such curve was filed as active; inconclusive means weak or mixed curves, or effect the other way; inactive means no such curve, though single readings can be large or run the other way; the % refers to the signal ratio; further: on the % scale 0 is the no-effect control and ±100 the full control effect); conditions: HEK293 AR-UAS-bla GripTite, beta-lactamase FRET ratio, 16 h; activation: at 62.4 µM (top of the series) unless noted
Outline: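 HEK293 cells stably carrying a UAS-driven beta-lactamase reporter (GeneBLAzer AR-UAS-bla-GripTite) were plated at 2,000 cells/well, rested 4 h at 37C, then exposed to compounds in DMSO for 16 h. LiveBLAzer B/G FRET substrate was added for 2 h at room temperature; fluorescence read.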

[7] = biological target: Estrogen receptor (Homo sapiens) (UniProt P03372); assay: qHTS assay to identify small molecule antagonists of the estrogen receptor alpha (ER-alpha) signaling pathway (AID 743069; active means well fitted curve in the direction sought with a large enough effect in the signal ratio in the repeat runs, not every such curve was filed as active; inconclusive means weak or mixed curves, or effect the other way; inactive means no such curve, though single readings can be large or run the other way; the % refers to the signal ratio; further: potency means the concentration at half of the fitted maximal effect); conditions: HEK293 ER-alpha-UAS-bla, beta-lactamase ratio, antagonist mode; activity, negative = inhibition: at 69.4 µM (top of the series) unless noted
Outline: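 Reporter cells (ER-alpha-bla, HEK293 background) are conditioned overnight in stripped-serum medium (2% charcoal-stripped FBS). Compound and 17beta-estradiol exposure runs 18 hr at 37C, 5% CO2.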

[8] = biological target: Estrogen receptor (Homo sapiens) (UniProt P03372); assay: qHTS assay to identify small molecule agonists of the estrogen receptor alpha (ER-alpha) signaling pathway (AID 743075; calls by dose curve; further: potency means the concentration at half of the fitted maximal effect)
[9] = qHTS assay to identify small molecule antagonists of the estrogen receptor alpha (ER-alpha) signaling pathway using the BG1 cell line (AID 743080; calls by dose curve;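 further: BG1 cells stimulated with 17beta-estradiol alongside compound; nearly all actives have a fitted effect of over 25% in size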; further: potency means the concentration at half of the fitted maximal effect; on activity change, negative = inhibition: on the % scale 0 is the no-effect control and ±100 the full control effect); conditions: BG1Luc4E2 ERE-luciferase antagonist mode, luminescence; activity change, negative = inhibition: at 70.3 µM (top of the series) unless noted
Outline: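 Endogenous full-length ER-alpha in BG1-Luc-4E2 cells drives a stably integrated 4×ERE luciferase gene; compounds were tested against 17beta-estradiol over 21.5 h, with luminescence and multiplexed viability fluorescence recorded.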

[10] = qHTS assay to identify small molecule antagonists of the estrogen receptor alpha (ER-alpha) signaling pathway using the BG1 cell line - cell viability counter screen (AID 743081);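 further: compound given together with 17beta-estradiol as the ER stimulus; potency means the concentration at half of the fitted maximal effect; nearly all actives have a fitted effect of over 45% in size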
[11] = qHTS assay to identify aromatase inhibitors - cell viability counter screen (AID 743084); conditions: MCF-7 aro ERE viability, CellTiter-Fluor, 24 h; activity change, negative = cytotoxicity: at 70.3 µM (top of the series);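 further: cells stimulated with testosterone during compound exposure; potency means the concentration at half of the fitted maximal effect; nearly all actives have a fitted effect of over 55% in size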
[12] = system: thyroid hormone receptor (rat, GH3 cells); assay: qHTS assay to identify small molecule agonists of the thyroid receptor (TR) signaling pathway (AID 743066; calls by dose curve; further: potency means the concentration at half of the fitted maximal effect); conditions: GH3.TRE-Luc cells, TR agonist luciferase, 24 h; activation: at 83.9 µM (top of the series) unless noted
[13] = biological target: Aromatase (Homo sapiens) (UniProt P11511); assay: qHTS assay to identify aromatase inhibitors (AID 743083); further: potency means the concentration at half of the fitted maximal effect; nearly all actives have a fitted effect of over 55% in size
[14] = qHTS assay to identify small molecule antagonists of the androgen receptor (AR) signaling pathway using the MDA cell line - cell viability counter screen (AID 743041; further: nearly all actives have a fitted effect of over 45% in size; further: potency means the concentration at half of the fitted maximal effect); conditions: MDA-kb2 viability, CellTiter-Fluor, 16 h, cells co-treated with R1881 androgen agonist; viability change, negative = cytotoxic: at 70.3 µM (top of the series) unless noted
Outline: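 Same-well cytotoxicity was assessed by CellTiter-Fluor in MDA-kb2 AR-luc cells after 16 h of compound treatment under R1881 agonism.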

[15] = qHTS assay to identify small molecule antagonists of the thyroid receptor (TR) signaling pathway - cell viability counter screen (AID 743064); conditions: GH3.TRE-Luc viability, CellTiter-Fluor, 24 h; activity change, negative = cytotoxic: at 70.3 µM (top of the series) unless noted; further: nearly all actives have a fitted effect of over 50% in size; further: potency means the concentration at half of the fitted maximal effect
Outline: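 GH3.TRE-Luc rat pituitary cells carrying a TRE-luciferase reporter were treated with compound plus 1 nM T3 (final) for 23.5 h at 37 °C. Viability was then read in the same wells by CellTiter-Fluor fluorescence after a further 30 min.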

[16] = qHTS assay to identify small molecule antagonists of the thyroid receptor (TR) signaling pathway (AID 743065); further: potency means the concentration at half of the fitted maximal effect; nearly all actives have a fitted effect of over 55% in size
Outline: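 GH3.TRE-Luc rat pituitary cells (two TREs driving luciferase) were dosed with compound, then stimulated with 1 nM T3 (final) for 23.5 h at 37 C. ONE-Glo luminescence was the read-out, with CellTiter-Fluor fluorescence as the cytotoxicity counter-screen.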
Tags describe the fitted curve by direction and shape or compound fluorescence and quenching.

Chain of UniProt P11511 (P11511 whole entry, looked up): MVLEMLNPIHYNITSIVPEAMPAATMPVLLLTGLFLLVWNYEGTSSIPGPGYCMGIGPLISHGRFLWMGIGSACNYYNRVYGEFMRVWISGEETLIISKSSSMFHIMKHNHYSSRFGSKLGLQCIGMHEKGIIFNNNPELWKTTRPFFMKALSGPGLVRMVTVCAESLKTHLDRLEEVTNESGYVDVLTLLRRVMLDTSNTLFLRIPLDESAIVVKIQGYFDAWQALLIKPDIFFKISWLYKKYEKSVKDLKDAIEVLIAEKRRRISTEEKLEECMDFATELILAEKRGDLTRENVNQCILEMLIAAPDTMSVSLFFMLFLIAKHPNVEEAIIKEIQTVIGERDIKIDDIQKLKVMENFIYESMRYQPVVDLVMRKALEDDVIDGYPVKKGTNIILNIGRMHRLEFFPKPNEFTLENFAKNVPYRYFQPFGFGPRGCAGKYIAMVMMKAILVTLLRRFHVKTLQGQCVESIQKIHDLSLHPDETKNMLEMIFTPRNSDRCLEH
Chain of UniProt P10275 (P10275 whole entry, looked up): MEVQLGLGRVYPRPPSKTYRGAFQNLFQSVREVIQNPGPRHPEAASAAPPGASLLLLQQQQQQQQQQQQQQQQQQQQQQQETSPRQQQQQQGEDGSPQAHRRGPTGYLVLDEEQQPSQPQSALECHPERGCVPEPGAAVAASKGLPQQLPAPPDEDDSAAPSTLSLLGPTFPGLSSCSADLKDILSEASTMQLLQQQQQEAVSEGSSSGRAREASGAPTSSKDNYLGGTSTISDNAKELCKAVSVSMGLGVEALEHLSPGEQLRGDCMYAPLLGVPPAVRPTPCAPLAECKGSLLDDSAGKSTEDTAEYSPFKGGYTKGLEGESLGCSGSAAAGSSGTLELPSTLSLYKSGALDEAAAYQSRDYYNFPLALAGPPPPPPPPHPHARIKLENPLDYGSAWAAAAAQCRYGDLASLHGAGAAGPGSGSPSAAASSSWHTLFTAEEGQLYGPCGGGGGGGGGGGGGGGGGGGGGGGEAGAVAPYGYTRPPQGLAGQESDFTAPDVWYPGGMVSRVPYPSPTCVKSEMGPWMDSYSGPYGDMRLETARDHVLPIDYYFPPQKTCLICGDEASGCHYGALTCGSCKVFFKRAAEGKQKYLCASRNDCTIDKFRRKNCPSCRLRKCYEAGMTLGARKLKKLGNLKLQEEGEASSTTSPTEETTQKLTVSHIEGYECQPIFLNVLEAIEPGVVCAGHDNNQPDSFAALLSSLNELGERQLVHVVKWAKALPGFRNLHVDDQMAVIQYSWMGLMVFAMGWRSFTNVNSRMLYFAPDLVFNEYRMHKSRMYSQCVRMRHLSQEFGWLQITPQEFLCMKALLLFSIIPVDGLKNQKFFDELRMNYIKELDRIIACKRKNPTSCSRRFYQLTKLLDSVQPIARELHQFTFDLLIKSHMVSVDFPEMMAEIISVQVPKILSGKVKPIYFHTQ
Chain of UniProt P03372 (P03372 whole entry, looked up): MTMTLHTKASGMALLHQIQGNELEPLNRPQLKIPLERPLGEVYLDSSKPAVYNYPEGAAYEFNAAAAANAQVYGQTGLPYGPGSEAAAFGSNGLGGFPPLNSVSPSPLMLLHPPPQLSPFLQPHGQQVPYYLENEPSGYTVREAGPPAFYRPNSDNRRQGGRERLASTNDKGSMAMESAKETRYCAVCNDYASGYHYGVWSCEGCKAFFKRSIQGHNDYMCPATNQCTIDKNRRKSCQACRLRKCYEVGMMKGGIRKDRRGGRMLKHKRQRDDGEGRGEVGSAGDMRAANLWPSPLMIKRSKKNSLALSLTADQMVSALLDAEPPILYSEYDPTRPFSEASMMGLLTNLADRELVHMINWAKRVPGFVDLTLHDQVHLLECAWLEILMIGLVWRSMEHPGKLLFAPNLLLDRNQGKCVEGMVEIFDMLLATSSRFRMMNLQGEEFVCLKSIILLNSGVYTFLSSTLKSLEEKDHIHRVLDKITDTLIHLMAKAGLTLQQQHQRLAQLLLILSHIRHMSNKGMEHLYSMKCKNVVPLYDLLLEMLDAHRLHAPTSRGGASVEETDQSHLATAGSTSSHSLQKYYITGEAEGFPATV

Q: Which results are given for Nc1cccc(O)c1?
A: Potency [1]: inconclusive: 70.6 µM [cytotoxic, single point]; Potency [2]: inconclusive: 28.4 µM [rising, partial curve, poor fit]; activation [3]: inconclusive: 10.2% [phenotype inactive] [at 95 µM]

Q: Which Potency [4] does the source give for Cc1onc(-c2ccccc2Cl)c1C(=O)N[C@@H]1C(=O)N2[C@@H]1SC(C)(C)[C@@H]2C(=O)O here?
A: inconclusive: 0.8 nM [cytotoxic, full curve, poor fit]

Q: For CC1(C)[C@@H](OC(=O)CCC(=O)O)CC[C@]2(C)[C@H]3C(=O)C=C4[C@@H]5C[C@@](C)(C(=O)O)CC[C@]5(C)CC[C@@]4(C)[C@]3(C)CC[C@@H]12, which Potency [4] is on record?
A: inconclusive: 1.1 nM [cytotoxic]

Q: With CC(C)(C)CC(C)(C)c1ccc(OCCO)cc1 as the molecule, how does the Potency [4] read?
A: inconclusive: 19000 nM [cytotoxic, partial curve, poor fit]

Q: What about the Potency [5] of the same molecule?
A: active: 15.1 µM and active: 12.2 µM

Q: And the Potency [6]?
A: inactive

Q: And the Potency [7]?
A: inconclusive: 10.7 µM [fluorescent] and inconclusive: 19.4 µM

Q: And the Potency [2]?
A: inconclusive: 54.6 µM [cytotoxic]

Q: What about the Potency [8] of the same molecule?
A: inconclusive: 13.7 µM [falling, full curve]

Q: And the Potency [3]?
A: inconclusive: 13.3 µM [inhibitor] and inconclusive: 21.6 µM [inhibitor, partial curve]

Q: And the Potency [9]?
A: inconclusive: 23.7 µM [falling, partial curve] and inconclusive: 24.2 µM [falling, partial curve]

Q: And the Potency [10]?
A: inconclusive: 29.8 µM [cytotoxic, partial curve, poor fit] and active: 24.2 µM

Q: And the Potency [11]?
A: active: 33.5 µM and active: 30.5 µM

Q: With CCCCOC(=O)CCS as the molecule, how does the Potency [1] read?
A: inactive

Q: What about the Potency [12] of the same molecule?
A: inconclusive: 34.4 µM [activator, partial curve]

Q: What about the Potency [3] of the same molecule?
A: inconclusive: 21.7 µM [inhibitor, partial curve, poor fit]

Q: And the activity change, negative = inhibition [9]?
A: inconclusive: -3.46%

Q: What about the Potency [13] of the same molecule?
A: inconclusive: 38.6 µM [inhibitor, partial curve, poor fit]

Q: For O[C@@H](CNC[C@H](O)[C@H]1CCc2cc(F)ccc2O1)[C@@H]1CCc2cc(F)ccc2O1, which Potency [4] is on record?
A: inconclusive: 26800 nM [cytotoxic]

Q: What about the Potency [14] of the same molecule?
A: inconclusive: 33.5 µM [cytotoxic, single point]

Q: What about the Potency [15] of the same molecule?
A: active: 10.6 µM

Q: And the Potency [12]?
A: inconclusive: 10.6 µM [inhibitor, partial curve, poor fit]

Q: And the Potency [7]?
A: active: 26.8 µM [inconclusive]

Q: And the Potency [10]?
A: inconclusive: 13.3 µM [cytotoxic, single point]

Q: What about the Potency [11] of the same molecule?
A: inconclusive: 29.8 µM [cytotoxic]

Q: Which Potency [4] does the source give for COC(C)CCO (stereo not given) here?
A: inactive

Q: Which Potency [4] does the source give for CNS(=O)(=O)Cc1ccc2[nH]cc(CCN(C)C)c2c1 here?
A: inconclusive: 4.3 nM [cytotoxic, full curve]

Q: Which Potency [4] does the source give for CC(C)N1C(=O)c2ccccc2C1=O here?
A: inactive

Q: For CN(C)C(=O)Nc1ccc(Oc2ccc(Cl)cc2)cc1, which Potency [4] is on record?
A: inconclusive: 17400 nM [cytotoxic, partial curve, poor fit]

Q: And the viability change, negative = cytotoxic [14]?
A: inconclusive: -31.1% [cytotoxic]

Q: What about the Potency [15] of the same molecule?
A: inactive

Q: And the Potency [16]?
A: active: 54.5 µM

Q: What about the Potency [10] of the same molecule?
A: inconclusive: 68.6 µM [cytotoxic, partial curve, poor fit]

Q: What about the Potency [13] of the same molecule?
A: inconclusive: 34.4 µM [inhibitor]

Q: For O=C1[C@H]2CCCC[C@H]2C(=O)N1CCCCN1CCN(c2nsc3ccccc23)CC1, which Potency [4] is on record?
A: inconclusive: 19000 nM [cytotoxic, partial curve]

Q: What about the Potency [14] of the same molecule?
A: inconclusive: 27.8 µM [cytotoxic, single point]

Q: What about the Potency [15] of the same molecule?
A: active: 21.1 µM

Q: What about the Potency [16] of the same molecule?
A: active: 29.8 µM

Q: What about the Potency [2] of the same molecule?
A: inactive

Q: And the Potency [3]?
A: inactive

Q: What about the Potency [10] of the same molecule?
A: active: 29.8 µM

Q: And the Potency [11]?
A: active: 29.8 µM

Q: With CN(C)/N=N/c1nc[nH]c1C(N)=O as the molecule, how does the Potency [1] read?
A: inconclusive: 33.5 µM [cytotoxic, single point] and active: 62 µM

Q: And the Potency [3]?
A: inactive

Q: Which Potency [4] does the source give for CCCCCCCCCO here?
A: inconclusive: 15.5 nM [cytotoxic, full curve]

Q: What about the Potency [14] of the same molecule?
A: inconclusive: 0.0039 µM [rising, full curve, poor fit]

Q: For CC(C)(C)C(=O)OCOC(=O)[C@@H]1N2C(=O)[C@@H](NC(=O)[C@H](N)c3ccccc3)[C@H]2SC1(C)C, which Potency [4] is on record?
A: inconclusive: 1.8 nM [cytotoxic, full curve, poor fit]

Q: With CCN1CCOCC1 as the molecule, how does the Potency [4] read?
A: inactive

Q: Which Potency [4] does the source give for CN(C)c1ccc(C(=N)c2ccc(N(C)C)cc2)cc1 here?
A: active: 34.2 µM and active: 37.4 µM

Q: And the Potency [14]?
A: active: 60.4 µM and inconclusive: 66 µM [cytotoxic, single point]

Q: And the Potency [15]?
A: active: 53.8 µM and active: 26.3 µM

Q: What about the Potency [7] of the same molecule?
A: inconclusive: 24.2 µM [inhibitor, partial curve, poor fit] and active: 37.4 µM [inconclusive]

Q: What about the Potency [2] of the same molecule?
A: inconclusive: 43.1 µM [cytotoxic, partial curve, poor fit] and inconclusive: 18.8 µM [cytotoxic, full curve, poor fit]

Q: And the Potency [3]?
A: inconclusive: 42.7 µM [inhibitor, partial curve] and inconclusive: 46.7 µM [inhibitor, partial curve]

Q: What about the Potency [9] of the same molecule?
A: inconclusive: 27 µM [falling, partial curve] and inconclusive: 26.3 µM [falling, partial curve]

Q: What about the Potency [10] of the same molecule?
A: active: 30.3 µM and active: 14.8 µM

Q: And the Potency [13]?
A: inconclusive: 60.4 µM [inhibitor, single point] and inconclusive: 58.8 µM [inhibitor]

Q: What about the Potency [11] of the same molecule?
A: inconclusive: 60.4 µM [cytotoxic, partial curve] and inconclusive: 58.8 µM [cytotoxic, single point]
